The test has as its system mouse Lewis Lung LL/2 cells. The test is described as follows: Cell-ELISA on intact cells. Format: cell-based. Conditions: intact un-permeabilized mouse LL/2 cancer cells; antibody 5 μg/mL. Here is the method:
Cell-ELISA Methodology: 8,000-10,000 cells/well of a 96-well microplate were grown overnight. The next day, unbound cells were washed off with sterile 1×PBS. The cells in each well were fixed with freshly prepared 4% buffered paraformaldehyde (pH 7.2) for 1 hour followed by 3 washes with 1×PBS. The wells were then blocked with 5% BSA in PBS (100 μl/well) for 2 hours at room temperature. Microplate wells were then washed 5 times with 300 μl of ice cold 1×PBS. MAbs NMC-103, NMC-204 or NMC-303 at 1 μg/mL in 1% BSA/PBS were then incubated with various cancer or normal untransformed cells for 2 hours at room temperature. […] The reaction was stopped by addition of 50 μL of stop solution (ThermoFisher, Cat. No. SS04) to each well and absorbance of each well was measured at OD450 nm. The absorbance value of each experimental well was corrected for the absorbance value obtained from wells treated with isotype-identical mAbs included in each experiment. The results are thus expressed as “relative binding”.
In a 96-well microplate, 15,000 cells/well were cultured overnight. […] The reaction was stopped by addition of 50 μL of stop solution (ThermoFisher, Cat. No. SS04) to each well and absorbance of each well was measured at OD450 nm. The absorbance value of each experimental well was corrected for the absorbance value obtained from wells treated with isotype-identical mAbs included in each experiment.
(An ELISA detects its analyte on a solid surface through an enzyme-linked reagent.)

The source of these data is patent US20220098328A1, “ANTIBODIES TO M(H)DM2/4 AND THEIR USE IN DIAGNOSING AND TREATING CANCER” (NomoCan Pharmaceuticals LLC, priority 2017, published 2022).

For part of its entries the source gives two or more results. This list holds those alone. There may be further records. The records of an entry appear to be repeats (runs, samples, wells or individuals). Brackets tell where a record comes from. Letters count within one entry.

B1: NMC-H103 (VH4/VK3): humanized NMC-103 variant, human IgG1, VH4 (SEQ ID NO:299) and VK3 (SEQ ID NO:297) (antibody, V domains shown)
VH: EVQLVESGGGLVQPGPSLRLSCTTSGFTFTHYYMSWVRQAPGKGLEWLGFIRNKAKGYTAEYSASVKGRFTISRDNSKSTLYLQMNSLRAEDTAVYYCARDIGDNWGQGTLVTVSS
VL: DIVMTQTPLSSPVTLGQPASISCRSSKNLLHSNGITYLYWYLQKPGQSPQLLISRVSNLASGVPDRFSGSESGTDFTLKISRVEAEDVGVYFCAQLLELPYTFGGGTKVEIK
modifications: human IgG1 constant regions lacking entries; mAb NMC-H103.VH4Heavy Chain Variable Region; mAb NMC-H103.VK3Light Chain Variable Region
For B1, the “average OD reading, cell-based ELISA binding to intact cells” value was 3.51 OD450 (absorbance, unitless) [passage A] and 3.48 OD450 (absorbance, unitless) [passage B].
